The text below walks through data of PubChem BioAssay AID1346428 (National Center for Advancing Translational Sciences (NCATS), 2018).

The structures appear in SMILES notation. Among all 48,000 compounds or so, about 1,200 (2.5%) were called active. Roughly 2% stayed inconclusive and do not appear here.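 Rule for the calls: active = activation of at least 60% and not above a set upper limit (about 1 call in 100 departs from these limits); inconclusive = activation of 40% to 60%, or above that upper limit; inactive = activation under 40%.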 The list shows a part of the results.

In this experiment the target is Probable G-protein coupled receptor 32 (Homo sapiens) (UniProt O75388). As to the kind of experiment: qHTS for Agonists of Human Resolvin D1 Receptor DRV1. Note: 0% is about no effect. As to conditions: CHO-K1 GPR32 beta-arrestin PathHunter luminescence, 90 min; at 76.9 µM; stronger effect = higher value; zero percent set by DMSO-only wells. The gist of the method: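 Agonism was scored by beta-Gal fragment complementation (chemiluminescent read, 1 h detection at ambient temperature) reporting beta-arrestin binding to GPR32 in engineered CHO-K1 cells. Compound treatment lasted 90 min at 37 C, normalized to a DMSO basal control.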
Chain of UniProt O75388 (O75388 whole entry, looked up, the tested form may be a part): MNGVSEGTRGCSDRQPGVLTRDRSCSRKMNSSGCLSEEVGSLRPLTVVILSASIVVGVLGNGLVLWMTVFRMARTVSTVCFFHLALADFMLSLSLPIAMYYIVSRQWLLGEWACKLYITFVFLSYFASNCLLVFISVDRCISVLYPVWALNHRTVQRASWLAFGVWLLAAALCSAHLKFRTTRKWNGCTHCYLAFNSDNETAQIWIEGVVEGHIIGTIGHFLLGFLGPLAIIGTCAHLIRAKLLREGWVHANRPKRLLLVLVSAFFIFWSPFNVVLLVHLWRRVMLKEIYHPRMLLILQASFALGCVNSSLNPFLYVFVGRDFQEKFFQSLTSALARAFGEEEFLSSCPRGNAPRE
For orientation: qHTS replaces the single test concentration by a dilution series.
Turning to `Cc1cccc(N2CCN(C(=O)c3noc4c3CCCCC4)CC2)c1C`, the activation is inactive: -15.9%.

`COc1cccc(C(=O)N(Cc2sccc2C)C2CCS(=O)(=O)C2)c1` (centres undefined): the activation was inactive: -13.7%.

With `CC(C)(C)OC(=O)N1CCC(c2c(C(=O)NCc3ccc(F)cc3)cnn2-c2ccc(F)cc2)CC1`, the activation is inactive: -6.11%.

For the compound `CCOC(=O)c1c(C)oc2nc(C)nc(N3CCN(c4ccc(C(C)=O)cc4)CC3)c12`, the activation is inactive: -3.4%.

As to `Cc1ccc(-c2cn3c(n2)sc2cc(C(=O)NCCCN4CCCCC4)ccc23)cc1`, the activation was inactive: 15.8%.

In the case of `COc1ccc2cc3cc(C(=O)N4CCN(c5ccc(C(C)=O)cc5)CC4)sc3nc2c1Cl`, the activation was inactive: 3.77%.

For `COc1ccc(OCC2c3cc(OC)c(OC)cc3CCN2C(=O)c2ccc(F)cc2)cc1` (centres undefined), the activation was inactive: -3.95%.

In the case of `CCN(CC)CCNC(=O)c1sc2nc3n(c(=O)c2c1C)CCCCC3`, the activation was inactive: 4.31%.

As to `COc1ccc(C(=O)Nc2cc(-c3cccc(C)c3)nn2-c2ccccc2)cc1`, the activation was inactive: -3.59%.

In the case of `CCOC(=O)c1ccc(NC(=O)c2c(NCc3cccs3)sc3c2CCCCC3)cc1`, the activation was inactive: -4.18%.

In the case of `O=S(=O)(NCc1nc2cccnc2n1Cc1ccc(F)cc1)c1ccc2c(c1)CCCC2`, the activation was inactive: -12.1%.

Regarding `CCCC(=O)O[C@]1(C(=O)CC)CC[C@H]2[C@@H]3CCC4=CC(=O)CC[C@]4(C)[C@H]3[C@@H](O)C[C@@]21C`, the activation was inactive: -5.62%.

Turning to `O=S(=O)(NCCc1csc2nc(-c3ccc(F)cc3)nn12)c1ccc(Br)cc1`, the activation was inactive: 23.4%.

For `Cc1cc(NC(=O)Cn2c(=O)nc(-c3ccccc3F)c3cc(Cl)ccc32)ccc1Br`, the activation is inactive: -5.98%.

Consider `CC1=C(C(=O)Nc2ccccc2C)C(c2ccncc2)n2nc(SCc3ccccc3)nc2N1` (centres undefined), for which the activation is inactive: -15.3%.

For `Cc1ccc(NC(=O)Cn2c(=O)n(-c3ccc(Cl)c(Cl)c3)c(=O)c3c(C)c(C)sc32)c(C)c1`, the activation is inactive: -9.14%.

`Cc1cccc(Cn2c(CN3CCC(C(=O)NCc4cccnc4)CC3)cc3ccccc32)c1`: the activation is inactive: -15.5%.

On to `COc1cn(CC(=O)Nc2ccc(F)cc2)c(CN2CCCCC2)cc1=O`, for which the activation was inactive: -4.28%.

On to `COc1cccc(CSc2nc3n(n2)C(c2cccs2)C(C(=O)Nc2ccccc2C)=C(C)N3)c1` (centres undefined), for which the activation was inactive: 12.4%.

As to `CCOC(=O)c1c(N)n(-c2ccc(Cl)c(Cl)c2)c2nc3ccccc3nc12`, the activation was inactive: 19%.

As for `CCN1CCN(c2cc(C)c3cc(NC(=O)c4cccc(C(F)(F)F)c4)ccc3n2)CC1`, the activation is inactive: 2.08%.

Consider `CCOC(=O)c1ccc(NC(=O)CC2C(=O)N(c3cccc(OC)c3)C(=O)N2C2CCCCC2)cc1` (centres undefined), for which the activation was inactive: -10.8%.

As to `Cc1ccc(OCCn2cc(C(=O)C3CCCCC3)c3ccccc32)cc1`, the activation is inactive: -20.2%.

`CSc1ncc(Cl)c(C(=O)Nc2ccc(S(=O)(=O)N3CCC(C)CC3)cc2)n1`: the activation was inactive: -1.85%.

Take `COc1cccc(CNC(=O)C2CCN(c3nc4ccc(Cl)cc4[nH]3)CC2)c1`: the activation is inactive: 4.32%.

With `CCCCc1cc(=O)oc2cc(C)c3c(C)coc3c12`, the activation was inactive: -11.8%.

Turning to `Cc1ccc(Cn2c(C(=O)Nc3cccc(Cl)c3)cc3sccc32)cc1`, the activation was inactive: -26.1%.

Turning to `COc1cc(C(=O)NC2CCCNC2)cc(OC)c1OC` (centres undefined), the activation was inactive: -16.3%.

As to `Cn1nnnc1SCCNCc1ccccc1OCc1ccccc1F`, the activation was inactive: 38.4%.

For `Cn1cnc(S(=O)(=O)N2CCCC(C(=O)Nc3ccc(F)cc3Cl)C2)c1` (centres undefined), the activation is inactive: -14.3%.

For the compound `O=C(NCCn1cc(SCc2ccc(F)cc2)c2ccccc21)c1c(F)cccc1F`, the activation was inactive: 9.17%.

Regarding `Cc1ccc(C2c3c(-c4ccccc4O)n[nH]c3C(=O)N2CCCO)cc1` (centres undefined), the activation is inactive: -15.7%.

For `CCOC(=O)c1cccc(NC(=O)c2ccc3c(c2)nnn3C2CCCC2)c1`, the activation is inactive: 9.34%.

Take `COc1cccc(C(=O)Nc2ccc(Cl)c(-c3nc4ccccc4[nH]3)c2)c1`: the activation was inactive: -5.21%.

Regarding `CSc1nc(C)cc(Nc2c(C)cc(C)cc2C)n1`, the activation is inactive: -11.3%.

On to `COc1ccc2c(c1)CC(NC(=O)Nc1cc(Cl)ccc1OC)CO2` (centres undefined), for which the activation is inactive: -16.3%.

As to `COC(=O)c1ccc(NS(=O)(=O)c2ccc(-n3cccn3)cc2)cc1`, the activation was inactive: -6.68%.

As to `CC(=O)c1ccc(N2CCN(S(=O)(=O)c3ccc4c(c3)CC(C)N4C(=O)C3CCC3)CC2)cc1` (centres undefined), the activation was inactive: -5.16%.

With `Cc1ccc(S(=O)(=O)c2cn(C)c3cc(N4CCCCCC4)c(F)cc3c2=O)cc1`, the activation is inactive: 8.19%.

As for `OC[C@H]1O[C@@H](n2cnc3c(NC4CCCCC4)ncnc32)[C@H](O)[C@@H]1O`, the activation was inactive: 0.139%.

Consider `CC(=O)c1ccc(NS(=O)(=O)c2cc(-c3cnc(C4CC4)o3)ccc2C)cc1`, for which the activation was inactive: 18.9%.

As for `Cc1ccccc1NC(=O)c1ccc2nc(Cc3ccccc3)oc2c1`, the activation was inactive: -19.5%.

On to `Cn1c(SCc2ccc(F)cc2)nc2c([nH]c3ccccc32)c1=O`, for which the activation is inactive: 3.7%.

Turning to `COc1ccccc1C(=O)Nc1c(C(=O)N(CCN(C)C)Cc2ccco2)oc2ccccc12`, the activation was inactive: 8.82%.

Take `C=Cc1ccc(Cn2c(C(=O)O)c(CNCc3cccs3)c3ccc(C)cc32)cc1`: the activation was active: 96.3%.

On to `Cc1ccc(Cn2c(=O)n(-c3ccccc3)c(=O)c3ccc(C(=O)NCc4ccco4)cc32)cc1`, for which the activation is inactive: -9.04%.

Consider `CCOc1ccc(NC(=O)c2cc3c(-c4ccccc4F)nn(C)c3s2)cc1`, for which the activation is inactive: 3.11%.

As to `O=C(CCSCc1cnn(-c2ccccc2)c1-n1cccc1)NCc1ccccc1F`, the activation was inactive: -2.78%.

On to `O=C(c1cc(=O)c2cc(Cl)ccc2o1)N(Cc1ccccc1)C1CCS(=O)(=O)C1` (centres undefined), for which the activation was inactive: -14.6%.

Turning to `COc1cc(Cl)c(C)cc1NC(=O)c1cc2ccc3cccnc3c2[nH]1`, the activation is inactive: -0.357%.

Regarding `CC(=O)OCc1cnc(C)c2oc(=O)c(C(=O)Nc3cccc(F)c3)cc12`, the activation is inactive: -7.92%.

Regarding `Cc1ccc(-n2ncc3c(NCCCc4ccccc4)ncnc32)cc1`, the activation is inactive: 12.1%.

Take `Cc1nc(N2CCCC2)c2c(C(=O)Nc3cccc(Cl)c3C)c(C)oc2n1`: the activation was inactive: -27.5%.

As to `COc1cc2[nH]c(=O)n(Cc3ccc(C(=O)NCc4ccccc4)cc3)c(=O)c2cc1OC`, the activation was inactive: -5.31%.
